Structures can show the parent of a compound that is named as a salt. ± gives the standard deviation of the averaged measurements. In all, about 3,200 compounds were measured (“nuclei count (viability) relative to DMSO”: median about 99, lowest 2% from about 16 on). The list shows a part of the results.

Consider 46 compounds from the supplement of paper PMC8183993.

For this experiment, the system named is U2OS. Put plainly: nuclei count (viability) relative to DMSO (% of DMSO); higher = more viable cells. The following applies: 10 µM; 24 h. As for the experimental part: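 Primary image-based screen in U2OS cells: compounds at 10 uM for 24 h, then a 1 h o-propargyl-puromycin (OPP) pulse, click labelling, and high-throughput microscopy. Mean cytoplasmic OPP intensity and nuclei count were normalised to DMSO wells within each plate (DMSO = 100) and averaged over triplicate plates.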
`COc1ccc(Br)cc1S(=O)(=O)NC(=O)/C=C/c1ccccc1Cc1ccc2ccccc2c1` showed a nuclei count of 104.

`CN1CCN(C(=O)c2nc3ccc(Cl)cc3[nH]2)CC1` registered a nuclei count of 88.3.

As for `Nc1ncn(C2CC(O)C(CO)O2)c(=O)n1` (stereo unspecified) [5-Aza-2-deoxycytidine], the nuclei count worked out at 95.1.

As to `CN(C(=O)CCCOc1ccc2[nH]c(=O)ccc2c1)C1CCCCC1` [Cilostamide], the nuclei count was 103.

`NNC(=O)c1ccncc1` [Isoniazid]: the nuclei count came out at 89.2.

In turn, `O=C(Nc1ncc(SCCN2CCCC2)s1)[C@]1(c2ccc(S(=O)(=O)C3CC3)cc2)C[C@H]1C1CCCCC1` had a nuclei count of 61.2.

The compound `O=C(O)CCCN1CCC(O[C@@H](c2ccc(Cl)cc2)c2ccccn2)CC1` [Bepotastine Besilate] registered a nuclei count of 104.

Take `CCC(=O)OCC(=O)[C@@]1(OC(=O)CC)[C@@H](C)C[C@H]2[C@@H]3CCC4=CC(=O)C=C[C@]4(C)[C@@]3(F)[C@@H](O)C[C@@]21C` [Betamethasone Dipropionate (Diprolene)]: the nuclei count stood at 107.

With `CC1(C)O[C@@H]2C[C@H]3[C@@H]4C[C@H](F)C5=CC(=O)CC[C@]5(C)[C@H]4[C@@H](O)C[C@]3(C)[C@]2(C(=O)CO)O1` [Flurandrenolide], the nuclei count was 110.

As for `C[C@H]1C[C@H]2[C@@H]3CCC4=CC(=O)C=C[C@]4(C)[C@H]3C(=O)C[C@]2(C)[C@@]1(O)C(=O)CO` [Betapar (Meprednisone)], the nuclei count amounted to 107.

`Cc1ccc(S(=O)(=O)OCC(=O)Nc2ccc(C(=O)O)c(O)c2)cc1` returned a nuclei count of 106.

For `O=c1[nH]c(=O)n([C@H]2C[C@H](O)[C@@H](CO)O2)cc1I` [Idoxuridine], the nuclei count was found to be 96.9.

In turn, `CN1CCN(c2ccc3nc(-c4c(N)c5c(F)cccc5[nH]c4=O)[nH]c3c2)CC1` [Dovitinib (TKI-258)] gave a nuclei count of 72 ± 36.

`C=CCNC1=C2C[C@@H](C)C[C@H](OC)[C@H](O)[C@@H](C)/C=C(\C)[C@H](OC(N)=O)[C@@H](OC)/C=C\C=C(/C)C(=O)NC(=CC1=O)C2=O` displayed a nuclei count of 39.3.

Compound `Cc1cccc(N(C)C(=S)Oc2ccc3ccccc3c2)c1` [Tolnaftate] returned a nuclei count of 102.

`O=C(O)c1cccnc1` [Niacin] yielded a nuclei count of 105.

`CCCCc1oc2ccccc2c1C(=O)c1cc(I)c(OCCN(CC)CC)c(I)c1` [Amiodarone] showed a nuclei count of 91.5.

On to `CCCCc1oc2ccccc2c1C(=O)c1cc(I)c(OCCN(CC)CC)c(I)c1` [Amiodarone hydrochloride], for which the nuclei count is 89.8.

In turn, `O=C(Cc1ccccc1)Nc1cccc(C(=O)Nc2ccccc2C(=O)O)c1` came in with a nuclei count of 115.

In turn, `CCN1CCCC1CNC(=O)c1cc(S(N)(=O)=O)ccc1OC` (stereo unspecified) [Sulpiride] showed a nuclei count of 92.8.

For `COc1ccc(-c2ccc3cc(C(=O)O)ccc3c2)cc1C12CC3CC(CC(C3)C1)C2` [Adapalene], the nuclei count was determined as 105.

The compound `COc1ccc(-c2cc(=O)c3c(OC)c(OC)c(OC)c(OC)c3o2)cc1` [Tangeretin (Tangeritin)] came in with a nuclei count of 99.4.

Take `CCO/C(O)=C1\C(C)=NC(c2ccccc2)=C(C(=O)OCc2ccc([N+](=O)[O-])cc2)C1C#Cc1ccccc1` (stereo unspecified): the nuclei count came out at 104.

`O=C(O)c1ccc(C=C2SC(=S)N(c3cccc(C(F)(F)F)c3)C2=O)cc1` had a nuclei count of 101.

For the compound `CC12CC3CC(C)(C1)CC(N)(C3)C2` [Memantine Hydrochloride], the nuclei count came to 108.

`CC12CC3CC(C)(C1)CC(N)(C3)C2` [Memantine hydrochloride] came in with a nuclei count of 103.

In the case of `CN1C(C(=O)Nc2ccccn2)=C(O)c2sc(Cl)cc2S1(=O)=O` [Lornoxicam (Xefo)], the nuclei count was determined as 89.1.

As for `N[C@@H](Cc1cc(I)c(O)c(I)c1)C(=O)O` [3,5-Diiodo-L-tyrosine], the nuclei count came out at 105.

`O=C(Nc1cccnc1)N1CCC(Cc2cccc(Oc3ccc(C(F)(F)F)cn3)c2)CC1` had a nuclei count of 94.7.

With `O=C(Nc1ccc([N+](=O)[O-])cc1Cl)c1cc(Cl)ccc1O` [Niclosamide], the nuclei count amounted to 79.1 ± 22.

In the case of `Cc1cc(C)nc(NS(=O)(=O)c2ccc(NC(=S)NC(=O)COc3ccc(Br)cc3Cl)cc2)n1`, the nuclei count was found to be 94.5.

Consider `CCOc1ccc(Cc2nccc3cc(OCC)c(OCC)cc23)cc1OCC` [Ethaverine hydrochloride], for which the nuclei count came out at 103.

As to `C#C[C@]1(O)CC[C@H]2[C@@H]3CCC4=Cc5oncc5C[C@]4(C)[C@H]3CC[C@@]21C` [Danazol], the nuclei count worked out at 102.

The compound `CC(C)c1nc(CN(C)C(=O)N[C@@H](CCN2CCOCC2)C(=O)N[C@H](CC[C@H](Cc2ccccc2)NC(=O)OCc2cncs2)Cc2ccccc2)cs1` [Cobicistat (GS-9350)] registered a nuclei count of 96.2.

Regarding `Cc1cccc(-c2nn3c(c2-c2ccnc4ccc(C(N)=O)cc24)CCC3)n1`, the nuclei count amounted to 99.8.

In the case of `Cc1ccc(C(=O)Nc2cccc(C(F)(F)F)c2)cc1Nc1nc(-c2cccnc2)nc2c1cnn2C`, the nuclei count amounted to 48.

As for `CCOC(=O)N1c2ccc(C(F)(F)F)cc2[C@@H](N(Cc2cc(C(F)(F)F)cc(C(F)(F)F)c2)C(=O)OC)C[C@H]1CC`, the nuclei count turned out to be 101.

For `COc1ccc(-c2cc(=O)c3c(OC)c(OC)c(OC)c(OC)c3o2)cc1OC` [Nobiletin (Hexamethoxyflavone)], the nuclei count turned out to be 96.6.

The compound `N#Cc1c(Oc2ccc(F)c(NC(=O)Cc3cccc(C(F)(F)F)c3)c2)ccc2nc(NC(=O)C3CC3)sc12` returned a nuclei count of 90.1.

In turn, `CCC[C@@H]1C[C@@H](C(=O)N[C@@H]([C@H]2O[C@H](SC)[C@H](O)[C@@H](O)[C@H]2O)[C@@H](C)O)N(C)C1` [Lincomycin hydrochloride] gave a nuclei count of 97.

For the compound `CCC[C@@H]1C[C@@H](C(=O)N[C@@H]([C@H]2O[C@H](SC)[C@H](O)[C@@H](O)[C@H]2O)[C@@H](C)O)N(C)C1` [Lincomycin HCl (Lincocin)], the nuclei count turned out to be 86.4.

`CO[C@H]1C[C@@H]2CC[C@@H](C)[C@@](O)(O2)C(=O)C(=O)N2CCCC[C@H]2C(=O)O[C@H]([C@H](C)C[C@@H]2CC[C@@H](OC(=O)C(C)(CO)CO)[C@H](OC)C2)CC(=O)[C@H](C)/C=C(\C)[C@@H](O)[C@@H](OC)C(=O)[C@H](C)C[C@H](C)/C=C/C=C/C=C/1C` showed a nuclei count of 89.2.

On to `CO[C@H]1C[C@@H]2CC[C@@H](C)[C@@](O)(O2)C(=O)C(=O)N2CCCC[C@H]2C(=O)O[C@H]([C@H](C)C[C@@H]2CC[C@@H](OC(=O)C(C)(CO)CO)[C@H](OC)C2)CC(=O)[C@H](C)/C=C(\C)[C@@H](O)[C@@H](OC)C(=O)[C@H](C)C[C@H](C)/C=C/C=C/C=C/1C` [Temsirolimus (Torisel)], for which the nuclei count turned out to be 85.1.

Regarding `CN1CCCN=C1/C=C/c1cccs1` [Pyrantel tartrate], the nuclei count amounted to 116.

Compound `CCN(CC)CCN[C@@H](C(=O)OCCC(C)C)c1ccccc1` [Camylofine chlorhydrate] registered a nuclei count of 102.

`CC/C=C\C/C=C\C/C=C\C/C=C\C/C=C\C/C=C\CCC(=O)O` [Docosa-4Z,7Z,10Z,13Z,16Z,19Z-hexaenoic acid] showed a nuclei count of 96.9.
